# The whole screen tested about 360,000 compounds, of which about 17,000 (4.7%) were called active. The inconclusive results got no clear call from the source; some entries with a clear call stand among them for comparison. No stated cut-off is given here; in the data, active means activity change below about -50%; inconclusive means mostly about -30% to -49%; inactive means weaker than that.
# Assay: qHTS for Inhibitors of Inflammasome Signaling: IL-1-beta AlphaLISA Primary Screen
# Conditions: THP-1 LPS/ATP IL-1B secretion, 16 h; at 57.5 µM, active compounds read low
# Summary of the method: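 THP-1 cells pretreated 1 hr with compounds (up to 57.5 uM final), then stimulated with LPS (250 ng/mL final) plus ATP (1.25 mM final); secreted IL-1B measured by AlphaLISA after 16 hr, decreased signal indicating inhibition.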
# On the % scale 0 is the no-effect control and ±100 the full control effect.
row,SMILES,activity change
1,CC1(c2nnc(-c3ccncc3)o2)CC(c2ccc([N+](=O)[O-])cc2)=NO1 (configuration not stated),inconclusive: -36.1%
2,Cc1ccc(C)n1-c1ccc(N(C)C)cc1,inconclusive: -35.9%
3,Cn1c(NCc2ccco2)nc2c1c(=O)n(Cc1ccc(Cl)c(Cl)c1)c(=O)n2C,inconclusive: -32.3%
4,CCN(Cc1ccccc1)S(=O)(=O)c1cc(C(=O)NCC2CCCCC2)ccc1OC,inconclusive: -38.7%
5,CC(C)CC1C(=O)N(Cc2cn(Cc3ccco3)nn2)CCS(=O)(=O)N1Cc1ccc(-c2ccc(Cl)c(Cl)c2)cc1 (configuration not stated),active: -82.3%
6,O=C1C=C(c2cnc3ccccc3c2)C[C@@H](c2ccc3c(c2)OCO3)C1,inconclusive: -36.9%
7,CCN1CCN(CCNC(=O)CS(=O)(=O)Cc2nc(-c3ccc(C)cc3)oc2C)CC1,inconclusive: -38.8%
8,CN(Cc1cccc(Cl)c1Cl)C(=O)c1cc(S(=O)(=O)N2CCOCC2)ccc1F,inconclusive: -48.9%
9,FC(F)Sc1ccc(-n2c(-c3ccc(Cl)cc3)c[n+]3c2CCC3)cc1,inconclusive: -40.9%
10,N#Cc1ccc(C23CC4(C2)[C@H](CN(CC2CCCCC2)[C@@H]4c2ccccc2)C3c2ccccc2)cc1 (some centres not stated),inactive: -13.4%
11,CCCN(CCC)c1nc2ccccc2nc1C(C#N)C(=O)OCCOC (configuration not stated),active: -62.4%
12,Cc1cccc(OCCN2C(=O)C(=O)c3cc(C)ccc32)c1,inconclusive: -32.2%
13,O=C(NC12CC3CC(CC(C3)C1)C2)N1CCN(c2nc(-c3ccccc3)cs2)CC1,inconclusive: -35.3%
14,CC[C@@H](C)[C@@H]1CN([C@@H](C)CN2CCC[C@H]2CN2C(N)=NC[C@@H]2Cc2ccccc2)C(=N)N1CCCC1CCCC1,active: -63.4%
15,CC(=O)c1cc(F)c(N2CCN(C(=O)Cc3ccccc3)CC2)cc1C,inactive: -13.1%
16,COCCN(C(=O)c1snc(C(N)=O)c1N)C(C(=O)NC1CCCCC1)c1cc(OC)c(OC)c(OC)c1 (configuration not stated),inconclusive: -32.2%
17,Cc1ccc2nc(NCCO)nc(-c3ccccc3)c2c1,inactive: -22.9%
18,COC(=O)c1ccc(-n2c(C)cc(C(=O)CCl)c2C)cc1,active: -98.6%
19,O=C(c1cc2ccccn2n1)N1CCN(c2cccc(C(F)(F)F)c2)CC1,inconclusive: -41.9%
20,Cc1ccc2nc(N(CCCN(C)C)C(=O)c3cc(-c4cccs4)nc4ccccc34)sc2c1,inconclusive: -48.5%
21,O=C(Nc1ccc(Cl)cc1)N1CCCC(Cn2cccc2)C1 (configuration not stated),inconclusive: -31.9%
22,COCCN(C(=O)Cc1csc(-c2cccc(Cl)c2)n1)c1c(N)n(Cc2ccccc2)c(=O)[nH]c1=O,inconclusive: -43.5%

# From PubChem BioAssay AID743279 (National Center for Advancing Translational Sciences (NCATS), 2014)
